Values joined by “and” are separate entries in the source; they are usually repeats but may differ in a detail not shown here. Equal entries are not always repeated. This is one part of the list.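 Rule for the calls: active = fold change of at least 2 over DMSO control; inactive = below 2-fold.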 Most values come without repeats; read them as rough.
These compounds were tested on HEK293 ARE/NRF2-luciferase reporter (assay: ARE/NRF2 luciferase reporter activity, fold change over DMSO control; higher = stronger NRF2/ARE reporter activation). Conditions: 10 µM; 24 h.

SMILES	ARE/NRF2 luciferase reporter activity
[O-][n+]1ccccc1[S-].[O-][n+]1ccccc1[S-].[Zn+2]	active: 3.07
COc1cc2c(cc1OC)C1CC(=O)C(CC(C)C)CN1CC2 (stereo unspecified)	inactive: 0.905
C[C@]12CC[C@H](O)C[C@H]1CC[C@@H]1[C@@H]2CC[C@]2(C)[C@@H](C3=CC(=O)OC3)[C@@H](O)C[C@]12O	inactive: 1.07
CC1(C)C(C=C(Cl)Cl)C1C(=O)OCc1cccc(Oc2ccccc2)c1 (stereo unspecified)	inactive: 1.34
O=[N+]([O-])C(Br)(CO)CO	inactive: 1.21
CC1(C)C(=O)C=C[C@@]2(C)C1=C(O)C(=O)[C@]1(C)[C@@H]2CC[C@@]2(C)[C@H](c3ccoc3)C[C@H]3O[C@]321	inactive: 0.0216
CCCC(C)C1(CC)C(=O)NC(=S)NC1=O (stereo unspecified)	inactive: 1.02
NCCc1cc(O)c(O)cc1O	active: 3.14
C[C@H](N)[C@H](O)c1ccccc1	inactive: 1.12
COc1ccc(CN2CCNCC2)c(OC)c1OC	inactive: 0.914
CC1=NCCc2c1[nH]c1cc(O)ccc21	inactive: 0.715 and inactive: 0.456
CC[C@H]1[C@@H]2C[C@H]3[C@@H]4N(C)c5ccccc5[C@]45C[C@@H]([C@@H]2[C@H]5O)N3[C@@H]1O	inactive: 0.83
CC(=O)NC1CCSC1=O (stereo unspecified)	inactive: 0.871
O=C1CN=C(c2ccccc2Cl)c2cc([N+](=O)[O-])ccc2N1	inactive: 1.04
NCC1(CC(=O)O)CCCCC1	inactive: 0.92
CCC1(CC)C(=O)NC(=O)NC1=O	inactive: 0.914

Source: the supplement of paper PMC8748497
